± gives the standard deviation of the averaged measurements. This is one part of the list.
Each sequence was assayed on PfAP2-LT AP2 domain (GST-tagged) (assay: gcPBM binding intensity (ln(normalized median fluorescence intensity)); higher = stronger DNA binding).
How it was run: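 Binding intensity is defined as the maximum Masliner-normalised natural-log median intensity across replicate spots for either probe orientation. It was measured on an Agilent 4 × 180k array of primer-extended double-stranded 36-bp intergenic genomic probes and negative controls, to which GST-tagged P. falciparum DNA-binding domains made in E. coli were applied for 1 h in 1× PBS with 1% milk, 0.2 mg/ml BSA, 0.5% salmon testes DNA and 0.03% Triton X-100. Detection was by Alexa488 anti-GST antibody and scanning at 488 nm.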

Sequence | gcPBM binding intensity (ln)
CATAGATACATACACGCACACACATATATATATATA [CACACA_site13] | 10.2 ± 0.17
GTATTACCTTATTATTGTACTTTCATGATATATATG [XGTACX_site5382] | 9.02 ± 0.47
TTAATGAATGGACACACACACATATATATATATATT [CACACA_site5294] | 9.805 ± 0.021
ATAAAAAAAATTTGCACACCTTCAAAGTAATATATA [CACACA_site1584] | 8.78 ± 0.43
TAATTTTTTTTTTTTTTTTTTGTACTTCATTTTTAT [CACACA_negctrl_site1395] | 8.66 ± 0.62
AAAAAAAAAAAAAGTACATGCAATATGGATCTTAAA [TGCATGCA_site367] | 8.76 ± 0.45
CATATAAAAGGACACACACACACATATAAATATGTA [CACACA_site6568] | 9.88 ± 0.3
TGCTATTTTATTTATTCTTTTATAAAAGTATAATAT [XGTACX_negctrl_site358] | 8.56 ± 0.46
ATTTTTATAGAATGAACACACATATTATAGCATTTA [CACACA_site6842] | 8.76 ± 0.35
TTTTATTGTTGTTATACACACCATATAAAATATTTC [CACACA_site4983] | 8.79 ± 0.44
ATTCACTAAAAAATTGCATGCAATAAATTTTTTTTT [TGCATGCA_site962] | 8.65 ± 0.35
AATTGATTTATATATTGTACATATAAATTTATGTAT [XGTACX_site7785] | 8.89 ± 0.44
TTGCATATTTCTAATTGTACATTATTTTATTTTATA [XGTACX_site8451] | 8.79 ± 0.45
GGGAAAATAAATAAAGTGCAGATATTAAAAGTTGTA | 8.86 ± 0.5
AATAAAAAATATATGAGTACTAAATTGTTTTCTTAA [XGTACX_site8573] | 8.5 ± 0.65
CTCAACGATAGAGAAACATGCAAGTATAAGCAACTA [TGCATGCA_site771] | 8.96 ± 0.4
ATATTTATCTTTTTATGTACATATGCCCCTTTTCTG [XGTACX_site673] | 9.04 ± 0.46
ATTTTACATATTTGCACACATATATTTAAATACATA [CACACA_site4627] | 9.16 ± 0.4
AAGAAAATTAAATTAACACACATAAATATATATATA [CACACA_site1664] | 8.93 ± 0.38
GAGTTATTTCTTATTTAAGCATTCTACATATATATA [CACACA_negctrl_site239] | 8.84 ± 0.46
GTCCTTATGGATGATAAATTATTTTAAATATTCTAT [XGTACX_negctrl_site200] | 8.32 ± 0.45
TCTTGGTTATTAAAAAAAAAAAAATATATTTTTCCT [TGCATGCA_negctrl_site445] | 8.14 ± 0.47

Sequence | gcPBM binding intensity (ln)
TCATATGTTTCATGTTGTACATTGAAAGTTTGGCTA [XGTACX_site3202] | 8.64 ± 0.37
GTTCTAATATATTGCACACGTAAAAATATAGGTAAT [CACACA_site886] | 9.08 ± 0.35
AAATATGTACATATTATATATATATAATATATATTG [TGCATGCA_negctrl_site438] | 8.78 ± 0.4
TGTTAATTAAAGGACTGTACACTAATAATTCTATAA [XGTACX_site5195] | 8.59 ± 0.38
TAATTGTACGCCAATACACACAGAATTAGAATGTAG [CACACA_site102] | 9.11 ± 0.32
ATAAATAAATGGTGTTGTACTCTATTATATATATAT [XGTACX_site7835] | 8.93 ± 0.32
AATAAATATAGATTCACACACAAACATATATAAATA [CACACA_site7814] | 9.27 ± 0.37
AAAAAAAAAATATATATATATATATATATATAATTT [GTGCAC_negctrl_site32] | 9.15 ± 0.41
AAGAAAAAAATTTATACAAGAATTTTTTATTATTAA [TGCATGCA_negctrl_site587] | 8.14 ± 0.44
AAATAAAAACCATATCGTACAAAAATTTTTGTATTT [XGTACX_site7497] | 8.86 ± 0.43
ATATATATATATATATGTACTTAAAAATTTGTTTTG [XGTACX_site1514] | 9.725 ± 0.05
AAGTCAATTTTTTTTTTTTTTTTTTAACTTATTAAT [TGCATGCA_negctrl_site14] | 8.43 ± 0.45
GATCACTGAATAAAGGCACACATCTGACTAATTTTT [CACACA_site66] | 8.98 ± 0.42
TATACCTATAAATACACACACATATATAAATATGTA [CACACA_site6625] | 9.27 ± 0.31
TCCTTAAAAATCTAAAAAGAAAAAAACATATATTTT [GTGCAC_negctrl_site123] | 8.16 ± 0.45
ATTATTATATATATAACACACATAATTATATACTTA [CACACA_site1563] | 8.82 ± 0.49
TGAATAAATATATATACACACCCATATATATATATA [CACACA_site8833] | 9.62 ± 0.42
TTAAAAAGTGCGTAGTGTACTAATATAAATAATACA [XGTACX_site2922] | 8.83 ± 0.45
AATGTATATAATATTAATATGTAAATATATAATCAA [CACACA_negctrl_site1683] | 8.72 ± 0.39
AACATATACCCAGGTACATGCAAATATATATATTAT [TGCATGCA_site878] | 9.08 ± 0.37
TTTAAAAATTAATTCTGTACACATTTTTATTTTATT [XGTACX_site8] | 8.71 ± 0.55
TTCTTTCTTCAAAAGTGTACCAAATGTTAGAAAGGT [XGTACX_site4353] | 8.71 ± 0.29
